# The campaign covered roughly 52,000 compounds. About 4,300 (8.3%) were called active. Cut-off read from the data, not from the text of the source: active = survival mostly below about 52% (no sharp cut-off); inactive = mostly above about 56%. Some of the results follow.
# Test system: DeltatarO mutant
# Assay: growth inhibition of S. aureus wild type versus tarO mutant, primary screen, teichoic acid synthesis inhibitors, RN4220, OD600 (AID 463173)
# Conditions: OD600, 18 h, hits give low values, screened at 18.75 µg/mL (by protocol)
row,Structure (SMILES),survival
1,CCC(C)n1c(=N)c(C(=O)NCc2ccccc2)cc2c(=O)n3cc(C)ccc3nc21 (centres undefined),inactive: 69%
2,CCCN1C(=O)CC(C(=O)OC)=C1C,inactive: 81%
3,Cc1ccc(NC(=O)C2CCN(c3nc4ccccc4nc3C(F)(F)F)CC2)cc1F,active: 46%
4,CC(C)n1c(=N)c(C(=O)NCc2cccnc2)cc2c(=O)n3ccccc3nc21,inactive: 126%
5,O=C(COc1ccc(Cl)cc1)OCc1cc(=O)n2nc(-c3cccs3)sc2n1,active: -4%
6,COc1ccc(Cl)cc1NS(=O)(=O)c1cc(Br)cc2c1N(C(=O)C1CC1)CC2,active: 55%
7,Cc1ccc(CNC(=O)CCc2c(C)nc3c(c(C)nn3-c3ccccc3)c2C)cc1,inactive: 62%
8,COc1ccc(C(=O)c2oc3ccccc3c2NC(=O)COc2ccccc2)cc1,inactive: 62%
9,COc1ccc(CCNC(=O)c2sc3nc4n(c(=O)c3c2C)CCCC4)cc1OC,inactive: 64%
10,CCc1cccc(C)c1NC(=O)CC1Oc2ccc(C)cc2NC1=O (centres undefined),inactive: 117%
11,COc1ccc(S(=O)(=O)c2nnn(-c3cc(Cl)c(OC)cc3OC)c2C)cc1,inactive: 71%
12,CCOCCCn1c(SCC(=O)Nc2ccc(C(C)C)cc2)nc2c(sc3ccccc32)c1=O,inactive: 109%
13,COc1ccc(CCN(Cc2cc3cc4c(cc3[nH]c2=O)OCO4)C(=O)c2ccncc2)cc1OC,inactive: 101%
14,CC(NC(=O)Nc1c[nH]c2ccccc2c1=O)c1ccncc1 (centres undefined),inactive: 99%
15,O=C(CSc1nc2c([nH]c3ccccc32)c(=O)n1-c1ccc(F)cc1)NCc1ccccc1,inactive: 102%
16,Cn1c(=O)c2c(-c3ccccc3)n3c4ccccc4nc(-c4ccccc4)c3c2n(C)c1=O,inactive: 82%
17,COC(=O)c1cc2occc2n1Cc1nc(-c2ccccc2F)oc1C,inactive: 102%
18,COc1ccc(C(=O)NCC(c2cccnc2)N2CCc3ccccc3C2)cc1OC (centres undefined),inactive: 69%
19,CCOc1cccc(C(=O)Nc2ccc(S(=O)(=O)N(Cc3ccccc3)c3ccccc3)cc2)c1,inactive: 78%
20,CCOc1ccc(NC(=O)Cn2cc(C(=O)c3ccc(CC)cc3)c(=O)c3cc(C)ccc32)cc1,inactive: 82%
21,COc1cccc(-c2nc(SCc3cc(=O)c4ccc(C)c(C)c4[nH]3)n[nH]2)c1,inactive: 69%
22,Cc1ccc(Cc2nc3ccccc3nc2SCC(=O)NCCC(C)C)cc1,inactive: 112%
23,CCOC(=O)/C(C#N)=C\c1cn(C)c2ccccc12,inactive: 89%
24,CCCN(C(=O)c1nn(-c2ccc(OC)cc2)c(=O)c2c1c1ccccc1n2C)c1ccc(CC)cc1,inactive: 76%

# Source: PubChem BioAssay AID463173 (ICCB-Longwood Screening Facility, Harvard Medical School, 2010)
